Experimental data as given in PubChem BioAssay AID651813 (National Center for Advancing Translational Sciences (NCATS), 2012).
Among all 2,100 compounds or so, about 1,100 (52%) were called active. So high a share suggests a set chosen from earlier hits. Inconclusive means that the source gave no clear call. Such entries were picked first, then a sample of the others. Calls follow the shape of the dose curve; as a rule, active = well fitted inhibition curve with a large enough effect; inconclusive = small, poorly fitted or top-dose-only effect; inactive = no such curve, though single readings can be large or run the other way. No potency is given beside an inconclusive call; the fits are too rough.

Molecular target: DNA dC->dU-editing enzyme APOBEC-3G (Homo sapiens) (UniProt Q9HC16)
Assay: qHTS for inhibitors of Vif-A3G interactions: Cherry picks counterscreen;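 also: hits raise yellow fluorescence by blocking Vif-driven A3G-eYFP degradation; nearly all actives have a fitted effect of over 70% in size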;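 as to max response: max response given as percent of control signal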
Settings: HeLa A3G-eYFP + Vif (tagged APOBEC3G with the HIV-1 protein that degrades it), eYFP fluorescence, 24 h
How it was run: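 HeLa cells stably expressing A3G-eYFP and Vif were treated for 24 h at 37 deg C with compounds at several concentrations; yellow fluorescence (Ex 488 nm, Em 500-530 nm) read by Acumen Explorer, MG132 as positive control.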
Potency is read from the fitted curve at half-maximal effect; tags tell the direction and shape of the fitted curve.

Sequence of UniProt Q9HC16 (Q9HC16 whole entry, looked up): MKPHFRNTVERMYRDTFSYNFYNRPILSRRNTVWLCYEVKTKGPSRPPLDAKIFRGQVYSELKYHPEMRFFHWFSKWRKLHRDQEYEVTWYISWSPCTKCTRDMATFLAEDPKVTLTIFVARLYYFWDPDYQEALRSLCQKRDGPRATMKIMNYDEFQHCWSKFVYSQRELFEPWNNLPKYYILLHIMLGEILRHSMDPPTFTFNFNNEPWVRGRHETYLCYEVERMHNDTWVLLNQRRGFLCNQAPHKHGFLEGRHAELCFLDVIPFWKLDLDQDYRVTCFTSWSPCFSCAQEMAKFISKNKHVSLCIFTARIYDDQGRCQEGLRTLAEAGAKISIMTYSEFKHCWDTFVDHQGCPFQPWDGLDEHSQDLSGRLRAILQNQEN

Row | SMILES | Potency | max response
1 | Cc1cc2oc3ccc(NCCCn4ccnc4)cc3c(=O)c2cc1C | inconclusive [inhibitor, single point] | 
2 | COc1ccc(OC)c2sc(NC(=O)CCS(=O)(=O)c3ccccc3)nc12 |  | inactive: -5.13%
3 | Cc1ccc(NC(=S)NC(=O)c2ccc(F)cc2)cc1S(=O)(=O)Nc1cccc(Cl)c1 |  | inactive: -21.2%
4 | O=[N+]([O-])c1ccccc1SNc1ccccc1 |  | inactive: -7.81%
5 | COc1ccccc1OCC(=O)N/N=C/C=C/c1ccc([N+](=O)[O-])o1 | inconclusive [inhibitor, single point] | 
6 | Cc1noc(C)c1C(=O)OCC(=O)Nc1ccccc1SCC#N | inconclusive [inhibitor, single point] | 
7 | Cc1ccc(S(=O)(=O)N2CCCCC2)cc1NC(=O)Cn1ncc(Cl)c(Cl)c1=O | active: 12.5 µM | 
8 | Cc1ccc(NC(=O)c2c(C)nc3sc(C(=O)NC4CCCC4)c(N)c3c2-c2ccco2)c(C)c1 | inconclusive [inhibitor, single point] | 
9 | COc1cc(/C=C(\C#N)c2nc3ccccc3[nH]2)cc(Cl)c1OCc1ccccc1Cl | inconclusive [inhibitor, partial curve] | 
10 | O=C(CCCCn1c(=O)c2ccccc2n(Cc2ccc(F)cc2)c1=O)NCc1ccco1 | inconclusive [inhibitor, single point] | 
11 | Cc1ccc(-c2cn3nc(-c4ccccc4)c(-c4ccccc4)nc3n2)cc1 | active: 16.4 µM | 
12 | COc1ccc(C(=O)NC(=S)NCc2cccnc2)cc1Cl |  | inactive: -0.724%
13 | Cc1cc(Br)ccc1SCC(=O)OC/C(O)=C(\C#N)c1nc2ccccc2[nH]1 | inconclusive [inhibitor, single point] | 
14 | O=C(/C=C/c1ccncc1)c1cc(Cl)ccc1O |  | inactive: -22.8%
15 | CNC(=S)N/N=C(\C)c1ccc(Cl)s1 |  | inactive: 0.869%
16 | Cc1c(C(=O)Nc2ccc(C(C)C)cc2)sc2nc3n(c(=O)c12)CCC3 |  | inactive: 6.74%
17 | Cc1ccc2nc(/C(C#N)=C/c3ccc(-c4cccc([N+](=O)[O-])c4)o3)[nH]c2c1 | inconclusive [inhibitor, full curve] | 
18 | O=C(N/N=C/c1ccc(-c2ccc([N+](=O)[O-])cc2)o1)[C@H]1C[C@@H]1c1ccccc1 | inconclusive [inhibitor, single point] | 
19 | CC(C)(C)C(=O)c1sc2nc(-c3cccs3)cc(C(F)(F)F)c2c1N | active: 0.731 µM | 
20 | Cc1cc(N2CCN(Cc3cn(C)nc3-c3ccccc3F)CC2)cc(C)n1 | inconclusive [inhibitor, single point] | 
21 | COc1cc(C(=O)Nc2ccc3c(c2)nc(C)n3C)cc(OC)c1OC | inconclusive [inhibitor, single point] | 
22 | CCOC(=O)c1ccc(N=Nc2c(C)c(C#N)c(O)[nH]c2=O)cc1 | inconclusive [inhibitor, partial curve, poor fit] | 
23 | Cc1cccc(C(=O)Nc2nnc(C3=COCCO3)o2)c1 |  | inactive: -1.82%

Row | SMILES | Potency | max response
24 | Oc1[nH]c2ccccc2c1N=Nc1ccccc1 | inconclusive [inhibitor, single point] | 
25 | CCS(=O)(=O)c1nn2c(N)c(/C=C3/C=CC(=O)C(OC)=C3)c(=O)nc2s1 |  | inactive: 52.9%
26 | Cc1ccc(-c2nc3ncccc3o2)cc1NC(=O)c1ccc([N+](=O)[O-])o1 |  | inactive: 3.91%
27 | O=S(=O)(Nc1cc(Sc2ncn[nH]2)c(O)c2ccccc12)c1ccccc1 | inconclusive [inhibitor, single point] | 
28 | COc1ccc(CN2C(=O)C(C)Nc3ncnc(N4CCc5ccccc5C4)c32)cc1 (stereo not drawn) | active: 3.53 µM | 
29 | COc1ccc(N/C=C2\C(=O)CCc3c2oc2cc(Cl)c(O)c(Cl)c32)cc1 |  | inactive: -5.39%
30 | S=C(Nc1ccccc1)N1CCn2c1nc1ccccc12 |  | inactive: -19.9%
31 | CCOC(=O)CN1C(=O)S/C(=C/C=C/c2ccc(N(C)C)cc2)C1=O | inconclusive [inhibitor, partial curve] | 
32 | Nc1nc(SCc2ccc(Cl)cc2Cl)nc2nc3c(cc12)CCCC3 | active: 23.1 µM | 
33 | Cc1cc(C)nc(NC(=S)Nc2cccc(Cl)c2Cl)c1 |  | inactive: 1.24%
34 | CCOc1ccc(-n2nnnc2SCC(=O)c2ccccc2)cc1 | inconclusive [inhibitor, single point] | 
35 | Cn1nnnc1SCc1nc2scc(-c3ccc(Cl)cc3)c2c(=O)[nH]1 | inconclusive [inhibitor, single point] | 
36 | CC(=O)Nc1cccc(-c2ccnc3c2CC(C(=O)Nc2cccc(N(C)C)c2)O3)c1 (stereo not drawn) | inconclusive [inhibitor, single point] | 
37 | Cc1ccc(CNC(=O)c2cccc3c2C(=O)c2ccc(N4CCC(C)CC4)cc2S3(=O)=O)cc1 |  | inactive: -0.215%
38 | O=C(Nc1ccc(N2CCN(C(=O)c3ccc(Cl)cc3)CC2)cc1)c1ccc([N+](=O)[O-])o1 | inconclusive [inhibitor, full curve] | 
39 | C=CCOC(=O)C1=C(C)Nc2nnnn2C1c1cccs1 (stereo not drawn) |  | inactive: -7.35%
40 | Cc1ccc(CNC(=O)c2ccc3c(c2)NC(=O)C(CS(=O)(=O)Cc2cccc(C)c2)N3)cc1 (stereo not drawn) | inconclusive [inhibitor, single point] | 
41 | COc1ccc2nc(C)cc(SCC(=O)N/N=C/c3cccc4ccccc34)c2c1 | inconclusive [inhibitor, single point] | 
42 | CCOc1cc(/C=C/C(=O)c2ccc(OC)c(CN3CCOCC3)c2)cc(Br)c1O | inconclusive [inhibitor, single point] | 
43 | CCn1c2ccccc2c2c3ncc4cccn4c3ccc21 | inconclusive [inhibitor, single point] | 
44 | CCN(CC)c1ccc2c(c1)oc(=O)c1c(Cl)cc(=O)oc12 | inconclusive [inhibitor, single point] | 
45 | O=C1/C(=C/c2ccc(O)cc2)SC(=S)N1CC1CCCO1 (stereo not drawn) |  | inactive: -5.85%
46 | CSc1nsc(/C=C/Nc2ccc(C)cc2)c1C#N | active: 15.8 µM | 

Row | SMILES | Potency | max response
47 | O=C(CSc1ccccc1)Nc1nc2ccccc2[nH]1 | active: 9.94 µM | 
48 | Cc1cc(-n2c(C)cc(C(=O)CCl)c2C)no1 | inconclusive [inhibitor, partial curve, poor fit] | 
49 | O=C(CSc1nc2ccc(Nc3nc(N4CCOCC4)nc(N4CCOCC4)n3)cc2s1)Nc1ccccc1F | inconclusive [inhibitor, single point] | 
50 | S=c1[nH]nc(-c2cccnc2)n1/N=C/C(Cl)=C\c1ccccc1 | inconclusive [inhibitor, single point] | 
51 | C/C(=N\NC(=O)c1c(Cl)c(C)nn1C)c1ccc(NC(=O)C2CCC2)cc1 | inconclusive [inhibitor, partial curve] | 
52 | C[n+]1ccc(/C=C/c2c[nH]c3ccc(F)cc23)cc1 | active: 5.8 µM | 
53 | N#C/C(=C\c1cccnc1)c1nc2ccccc2[nH]1 | inconclusive [inhibitor, partial curve, poor fit] | 
54 | CCn1c(SCC(=O)N/N=C/c2ccc(C)s2)nc2ccccc21 | inconclusive [inhibitor, partial curve, poor fit] | 
55 | CCNc1ccc(Br)cc(C(=O)/C=C/c2ccc(Cl)cc2)c1=O | inconclusive [inhibitor, single point] | 
56 | Clc1ccsc1-c1csc(-c2cccnc2)n1 | inconclusive [inhibitor, single point] | 
57 | O=C(Nc1ccc(N2CCOCC2)cc1)c1cccc2ccccc12 | inconclusive [inhibitor, partial curve, poor fit] | 
58 | CCOC(=O)/C=c1/s/c(=C/c2ccc3cc(OC)ccc3c2)c(=O)n1CC(=O)NCC1CCCO1 (stereo not drawn) | inconclusive [inhibitor, single point] | 
59 | CCCCCS(=O)(=O)c1oc(-c2cccs2)nc1S(=O)(=O)c1ccc(C)cc1 | inconclusive [inhibitor, single point] | 
60 | CCOC(=O)c1ccc(Nc2nc3ccccc3nc2NS(=O)(=O)c2ccc(Cl)cc2)cc1 | inconclusive [inhibitor, single point] | 
61 | COc1cc(C2Oc3ccccc3C=C2[N+](=O)[O-])cc(OC)c1OC (stereo not drawn) | inconclusive [inhibitor, single point] | 
62 | Cc1cccc2cc(C#N)c(SCC(=O)N3CC(=O)Nc4ccccc43)nc12 | inconclusive [inhibitor, single point] | 
63 | CCOc1cc([N+](=O)[O-])cc2c1C(=O)Nc1ccccc1O2 | inconclusive [inhibitor, single point] | 
64 | COc1cc(C(=O)N/N=C(\C)c2ccccn2)cc(OC)c1OC | inconclusive [inhibitor, full curve, poor fit] | 
65 | COc1ccc(-n2c(O)c(/C=N/NS(=O)(=O)c3cc(C)ccc3C)c3ccccc3c2=O)cc1OC | inconclusive [inhibitor, partial curve] | 
66 | C(=C\c1ccco1)/C1=NN(c2ccccc2)C(c2ccco2)C1 (stereo not drawn) | inconclusive [inhibitor, single point] | 
67 | O=C(CCCCl)Oc1ccc2cc(-c3ccc4ccccc4n3)c(=O)oc2c1 |  | inactive: 32.5%
68 | Oc1ccccc1-c1nc(NCc2ccccc2)c2ccccc2n1 | inconclusive [inhibitor, single point] | 
